Measurements reported in PubChem BioAssay AID1240 (Sanford-Burnham Center for Chemical Genomics, 2008).
Out of some 50,000 compounds screened, about 800 (1.6%) showed an effect of 50% or more. Some of the results follow.

Biological target: Bcl-2-like protein 10 (Homo sapiens) (UniProt Q9HD36)
Assay: Phenotype converters, Bcl-B/TR3 peptide binding displacement, primary biochemical FP (AID 1240);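 further: 0% = Bcl-B with tracer peptide and DMSO and 100% = tracer peptide lacking Bcl-B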
Conditions: GST-Bcl-B / FITC-TR3 peptide fluorescence polarization; stronger effect = higher value; compound at 3.75 mg/L

UniProt Q9HD36, sequence (Q9HD36 whole entry, looked up): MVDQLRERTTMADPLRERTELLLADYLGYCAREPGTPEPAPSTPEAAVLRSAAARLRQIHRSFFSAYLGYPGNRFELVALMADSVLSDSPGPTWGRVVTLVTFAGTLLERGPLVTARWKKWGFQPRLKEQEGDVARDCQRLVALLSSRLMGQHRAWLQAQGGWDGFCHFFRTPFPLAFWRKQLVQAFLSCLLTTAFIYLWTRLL

SMILES | displacement [%]
COc1cccc(C(=O)NNS(=O)(=O)c2ccccc2)c1 | -0.2
COc1ccc(N2C(=O)NC(=O)/C(=C\c3ccc(OCc4cccc(F)c4)c(OC)c3)C2=O)cc1 | -11.6
O=C(CSc1nnc(SCC(=O)NC2CCCC2)s1)NC1CCCC1 | -1.1
CC1=NN(c2ccc(S(N)(=O)=O)cc2)C(=O)/C1=C\c1ccc(-c2cccc([N+](=O)[O-])c2)o1 | 1.9
COc1cc(/C=N/N=C2/NC(=O)C(CC(=O)Nc3cccc(Cl)c3Cl)S2)ccc1O (stereo not given) | 10.3
COc1cc(/C=N/N2C(=O)CSC2=S)ccc1OCCOc1ccc(C(C)(C)C)cc1 | 8.2
C/C(=N\NS(=O)(=O)c1ccc(C)cc1)C(C)(C)CC(=O)O | 7.8
O=C(CNC(=O)C(c1ccccc1)c1ccccc1)N/N=C/c1cn[nH]c1-c1ccccc1 | -9.5
O=C1NC(=O)N(c2ccccc2)C(=O)/C1=C/c1ccc(N2CCOCC2)o1 | 13.9
O=C(CC1Nc2ccccc2NC1=O)Nc1ccccc1C(F)(F)F (stereo not given) | 5.1
CCOc1ccc(N2C(=O)/C(=C/c3cc(Br)c(O)c(OC)c3)C(=O)NC2=S)cc1 | -12.9
O=C(COc1ccc(Cl)cc1)N(c1ccccc1)c1ccccc1 | 16.4
Nc1ccc(NC(=O)c2ccc(Cl)cc2Cl)c(Cl)c1 | 13.5
CCOc1ccc(NC(=O)/C=C/c2cc(Br)cs2)cc1 | 10.1
O=C(Cc1ccccc1)Nc1ccc(C(=O)Nc2nccs2)cc1 | 6.5
O=C(CSc1nnnn1-c1ccccc1)C1CC1 | 3.5
COc1ccc(/C=C2/C(=O)NN(c3cccc(Cl)c3)C2=O)cc1OC | 16.3
COC(=O)C1=C(C)N(c2ccc(C)c(C)c2)/C(=C/c2ccco2)C1=O | 8.8
Cc1ccc(C(=O)c2oc3ccccc3c2C)cc1 | 26.7
Cc1cc(/C=C2\SC(=O)N(C)C2=O)c(C)n1-c1cccc([N+](=O)[O-])c1 | 12.2
CN(C)C(=O)/C(C#N)=C\c1ccc(-c2ccc(S(N)(=O)=O)cc2)o1 | 3.2
Cn1/c(=N/N=C/c2ccncc2)sc2ccccc21 | 8.7

SMILES | displacement [%]
COc1ccc(NC(=O)CCCOc2ccc(Cl)cc2Cl)c(OC)c1 | -3.2
Cc1cccc(C)c1NC(=O)c1cc2ccccc2o1 | 5.3
O=C(O)C1=CNC=C(C(=O)O)C1c1ccc(O)cc1 | 3.2
Cc1ccc(OCC(=O)NC23CC4CC(CC(C4)C2)C3)cc1 | 13.6
Cc1ccc(OCC(=O)Nc2ccc(Cl)cn2)c(C)c1 | 8.5
Cc1ccc(C(=O)N2CCN(c3cccc(Cl)c3)CC2)cc1C | -5.7
Cc1ccc(C(=O)Oc2ccc(/C=C3\SC(N)=NC3=O)cc2)cc1 | 10.2
Cc1ccc(OCCOc2ccc(Br)cc2/C=N/n2cnnc2)cc1C | 2.5
COc1cccc(OCCOc2ccc(/C=N/n3cnnc3)cc2)c1 | -3.9
COC(=O)C1=C(C)NC(=O)NC1c1cccc(Cl)c1 (stereo not given) | -4.4
NC1=NC(=O)C(CC(=O)Nc2cccc([N+](=O)[O-])c2)S1 (stereo not given) | -1.9
CS(=O)(=O)N(CC(=O)Nc1cccc(Br)c1)c1cccc(Cl)c1 | 0.3
O=C(CN(Cc1ccccc1)S(=O)(=O)c1ccc(Br)cc1)NCc1ccccn1 | 9.6
CCN(CC)c1ccc(NC(=O)c2cccc(C)c2)cc1 | 14.5
COc1ccc(Cl)cc1N(S(=O)(=O)c1ccc(NC(C)=O)cc1)S(=O)(=O)c1ccc(NC(C)=O)cc1 | 9
COc1ccc(C(=O)Nc2ccc3nn(-c4ccc(F)cc4)nc3c2)cc1Cl | 8.3
COc1ccc(C2CC(c3ccccc3O)=NN2)cc1 (stereo not given) | -8.7
CCOC(=O)C1=C(C)N(C)C(=O)NC1c1cc2c(cc1[N+](=O)[O-])OCO2 (stereo not given) | 33.2
O=C(COc1ccccc1)NCCc1ccccc1 | 13.7
Cc1cc([N+](=O)[O-])ccc1-c1ccc(C(=O)Nc2ccc3oc(-c4ccccc4)nc3c2)o1 | 116
ONC(=Nc1ccc2c(c1)OCO2)C(=Nc1ccc2c(c1)OCO2)NO | 21.2
COC(=O)C1=C(C)N=c2s/c(=C/c3ccc(-c4cccc([N+](=O)[O-])c4)o3)c(=O)n2C1c1ccc(OC(C)=O)cc1 (stereo not given) | 5.7

SMILES | displacement [%]
O=C(COc1ccc(Cl)cc1Cl)Nc1ccc(S(=O)(=O)Nc2ncccn2)cc1 | 11.8
COc1cc(/C=C2/C(=O)NN(c3ccc(C)c(C)c3)C2=O)cc([N+](=O)[O-])c1O | 13.5
Cc1ccc(C=Nc2ccccc2C(N)=O)cc1 | -12.9
COc1cc(/C=C2/SC(=S)N(C)C2=O)cc(Cl)c1OCCOc1ccc(C(C)(C)C)cc1 | 6.8
CCC(=O)N1CCN(c2ccc([N+](=O)[O-])cc2F)CC1 | -6.6
COCCNC(=O)c1nn2c(C(F)(F)F)cc(-c3ccc(OC)cc3)nc2c1Cl | -2.4
COc1ccc2c3c(cccc13)OCC2=O | 13.3
O=[N+]([O-])c1cccc(S(=O)(=O)NCc2ccccn2)c1 | 7.9
Cc1ccc(C2N(Cc3ccccc3)CCN2Cc2ccccc2)s1 | -1.7
CC(=O)c1cccc(Oc2ncnc3sc4c(c23)CCCC4)c1 | -2.8
O=C(CN(Cc1ccccc1)Oc1ccccc1)N/N=C/c1ccc(Cl)c(Cl)c1 | -6.7
O=C(O)CSCCS(=O)(=O)c1ccccc1 | -3.6
Clc1ccccc1COc1ccccc1/C=N/Nc1nc(N2CCOCC2)nc(N2CCOCC2)n1 | -1
C=CCNC(=O)c1cc(Cl)c(OC)c(Cl)c1 | 8.7
CS(=O)(=O)N(Cc1ccc(C(=O)Nc2ccc(Cl)c(C(F)(F)F)c2)cc1)c1ccccc1 | 9.4
COC(=O)c1c(C)c(-c2cccs2)nc2ccccc12 | -8.5
CCOC(=O)C(Sc1n[nH]c(=O)[nH]c1=O)c1ccccc1 (stereo not given) | 0.4
CCOC(=O)C1=CN(c2ccc(OCC)cc2)C=C(C(=O)OCC)C1c1cccc(F)c1 | -7.8
C=CCN(CP(=O)(OCC)OCC)C(=O)c1ccccc1F | -16.7
COc1cccc(NC(=O)C(=O)NCC(C)C)c1 | 9.2
CC(NC(=O)CN(Cc1ccccc1)S(=O)(=O)c1ccccc1)c1ccccc1 (stereo not given) | 9.1
CCOc1cc(C2Nc3ccccc3C(=O)N2c2ccc(C)cc2)ccc1O (stereo not given) | 13.4

SMILES | displacement [%]
O=C1c2ccccc2C(=O)N1n1cnnc1 | 2.9
Cc1cc(C)nc(SCC2COc3ccccc3O2)n1 (stereo not given) | -3.7
CCOc1cc(C2Nc3ccccc3C(=O)N2Cc2ccccc2)ccc1O (stereo not given) | 8.5
O=c1cnnc(N/N=C/C=C/c2ccccc2)[nH]1 | -5.7
CCOc1ccc(N(CC(=O)NCCOC)S(=O)(=O)c2ccc(SC)cc2)cc1 | -7
CCOC(=O)C1=C(O)CSC1=Nc1ccccc1 | 0.1
O=C(c1ccccc1Cl)N1CCN(c2ccc(Cl)cc2)CC1 | -5
COC(=O)C1=C(C)NC(=O)CC1c1cccc(Cl)c1 (stereo not given) | 7.5
O=C(O)CC(NC(=O)COc1ccc(Cl)cc1Cl)C(=O)O (stereo not given) | -5.6
CC(NS(=O)(=O)c1cccs1)c1ccccc1 (stereo not given) | -1.7
COc1ccc(/C=C2/SC(=S)N(C(C)c3ccccc3)C2=O)cc1 (stereo not given) | -43
COc1cccc(NC(=O)COc2ccc(C(C)(C)c3ccccc3)cc2)c1 | 8.5
COc1ccc(C2CC(=O)C3=C(C2)Nc2ccccc2NC3c2ccc(SC)cc2)cc1OC (stereo not given) | -13.6
Clc1cccc(-n2ncnc2-c2ccc(Br)cc2)c1 | -4
Cc1cc(OCC(=O)N2CCN(c3ccccc3)CC2)ccc1Br | 5.2
C=C(C)Cn1c(Cc2ccccc2)n[nH]c1=S | -9.5
COc1ccccc1C1CC(c2ccc(F)cc2)=NN1c1ccccc1 (stereo not given) | 5.4
Cc1ccc2c(c1)N(C(=O)Nc1ccccc1)C(C)(C)CC2C (stereo not given) | 19.9
O=C(O)c1ccc(-n2c(/C=C\c3ccccc3)nc3ccccc3c2=O)cc1 | 0.1
COc1ccccc1N1C(=O)C2C3C=CC(O3)C2C1=O (stereo not given) | 3.7
O=C(CSC1=NCCS1)Nc1cccc2ccccc12 | -2.2
Cc1ccc(C)n1/N=C1\NC(=O)CS1 | 42.5

SMILES | displacement [%]
CN(C)CCCNC(=O)c1cc(Cl)ccc1Cl | -1.6
COc1ccc(C(=O)/C=C/NCc2ccccc2)cc1OC | 13.6
COc1cc(C(=O)N2CCN(C3CCN(Cc4ccccc4)CC3)CC2)cc(OC)c1OC | -16.7
O=C(COc1ccccc1)Nc1ccc(Cl)cc1[N+](=O)[O-] | -11.3
O=C(c1c(Cl)cccc1Cl)N1CCN(c2ccc(F)cc2)CC1 | 9
C/C(Cc1ccccc1)=N/NC(=O)c1cc(-c2ccccc2)nc2ccccc12 | -15.7
COc1ccc(C(=O)NCc2ccccc2C)cc1 | 1.4
O=C1CN(S(=O)(=O)c2ccccc2)C(c2ccccc2)c2cc(Br)ccc2N1 (stereo not given) | 5.9
CCOc1ccc(-n2nc3ccc(NC(=O)c4ccc(C)c([N+](=O)[O-])c4)cc3n2)cc1 | -9.3
CCOc1ccc(NC(=O)c2cc(OCC)c(OCC)c(OCC)c2)c([N+](=O)[O-])c1 | 7.5
CCCCOc1ccc(NC(=O)COc2ccc(C)cc2C)cc1 | -3.8
CCOc1cc(C(=S)N2CCOCC2)ccc1OC(=O)c1cccc([N+](=O)[O-])c1 | 8.7
COc1cccc(OCC(=O)Nc2ccc(OC)c(OC)c2)c1 | -0.7
Cc1c(OCc2ccc(C(=O)O)cc2)ccc2c3c(c(=O)oc12)CCC3 | 8.3
CCOc1ccc(N2C(=O)/C(=C/c3ccc(C(=O)OC)cc3)SC2=S)cc1 | 7.8
COc1cc(C(=O)Nc2c(Cl)cccc2Cl)cc(OC)c1OC | 1.7
O=C(c1ccc(Cl)cc1)c1cc([N+](=O)[O-])ccc1Cl | 10.2
Fc1ccc(-c2csc(Nc3ccc4c(c3)OCO4)n2)cc1 | 3.2
Cc1cc(C)nc(/N=C(/N)Nc2ccc(C)c([N+](=O)[O-])c2)n1 | 12
O=C1NC(=S)N/C1=C/c1ccc2c(c1)OCO2 | 43.8
CC1=C(C(=O)OCc2ccccc2)C(c2ccc(O)cc2)NC(=O)N1 (stereo not given) | 12.7
COc1ccc(S(=O)(=O)N(CC(=O)N[C@@H]2C[C@H]3CC[C@@H]2C3)c2ccc(C)cc2)cc1OC | -7.7
